Data as given in publication PMC6054203.
No constants are given. Whether binding was seen depends on the method and setting. Sequences can lack the tags named with a protein.

How the values were obtained:
Assay in all cases: two-hybrid; yeast strain AH109 co-transformed with AD (pGAD.GH) and BD (pGBT9.BS) fusions; growth on SC-LWH and on SC-LWH with 0.5 and 3.0 mM 3-AT
[1] = molecular target: T1, CIPK24, two-hybrid fusion (Arabidopsis) (UniProt Q9LDI3)
T1 sequence: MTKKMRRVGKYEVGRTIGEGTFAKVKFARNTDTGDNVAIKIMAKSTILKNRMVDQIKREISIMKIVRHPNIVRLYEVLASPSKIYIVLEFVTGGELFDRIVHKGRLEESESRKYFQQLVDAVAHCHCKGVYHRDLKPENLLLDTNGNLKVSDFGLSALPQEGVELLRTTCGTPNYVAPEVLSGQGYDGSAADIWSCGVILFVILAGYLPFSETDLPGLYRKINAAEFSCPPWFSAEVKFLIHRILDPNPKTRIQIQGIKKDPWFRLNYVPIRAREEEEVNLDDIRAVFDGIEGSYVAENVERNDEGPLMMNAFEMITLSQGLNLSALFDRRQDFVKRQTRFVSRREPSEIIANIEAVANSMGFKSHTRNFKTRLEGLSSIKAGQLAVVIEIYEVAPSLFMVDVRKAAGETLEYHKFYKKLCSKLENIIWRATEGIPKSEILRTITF

[2] = molecular target: T2, CIPK16, two-hybrid fusion (Arabidopsis) (UniProt Q9SEZ7)
T2 sequence: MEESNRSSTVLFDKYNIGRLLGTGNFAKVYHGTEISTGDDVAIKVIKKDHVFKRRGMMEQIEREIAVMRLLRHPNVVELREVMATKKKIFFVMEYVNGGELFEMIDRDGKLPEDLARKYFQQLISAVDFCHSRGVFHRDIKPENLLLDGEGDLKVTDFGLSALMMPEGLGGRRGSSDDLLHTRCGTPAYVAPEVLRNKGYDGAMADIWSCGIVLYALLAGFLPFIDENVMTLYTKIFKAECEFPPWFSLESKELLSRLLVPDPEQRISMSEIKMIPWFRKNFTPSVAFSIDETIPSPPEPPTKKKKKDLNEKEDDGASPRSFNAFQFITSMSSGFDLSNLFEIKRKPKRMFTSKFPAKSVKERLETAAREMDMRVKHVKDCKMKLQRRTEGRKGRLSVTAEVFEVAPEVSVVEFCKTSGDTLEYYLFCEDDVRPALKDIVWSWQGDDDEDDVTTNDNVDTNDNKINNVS

[3] = molecular target: T3, CIPK3, two-hybrid fusion (Arabidopsis) (UniProt Q2V452)
T3 sequence: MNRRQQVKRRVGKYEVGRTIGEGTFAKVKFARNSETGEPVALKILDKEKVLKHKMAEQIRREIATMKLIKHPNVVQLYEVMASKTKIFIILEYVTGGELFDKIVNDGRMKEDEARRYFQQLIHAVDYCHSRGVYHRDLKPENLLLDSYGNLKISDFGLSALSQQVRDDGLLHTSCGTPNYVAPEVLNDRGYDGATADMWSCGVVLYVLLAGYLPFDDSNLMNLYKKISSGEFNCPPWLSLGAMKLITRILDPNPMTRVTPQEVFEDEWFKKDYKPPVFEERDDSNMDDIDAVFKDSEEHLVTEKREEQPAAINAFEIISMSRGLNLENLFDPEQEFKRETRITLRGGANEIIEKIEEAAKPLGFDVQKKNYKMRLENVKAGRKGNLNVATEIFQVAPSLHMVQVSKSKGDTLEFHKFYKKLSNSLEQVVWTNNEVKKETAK

[4] = molecular target: T4, CIPK15, two-hybrid fusion (Arabidopsis) (UniProt P92937)
T4 sequence: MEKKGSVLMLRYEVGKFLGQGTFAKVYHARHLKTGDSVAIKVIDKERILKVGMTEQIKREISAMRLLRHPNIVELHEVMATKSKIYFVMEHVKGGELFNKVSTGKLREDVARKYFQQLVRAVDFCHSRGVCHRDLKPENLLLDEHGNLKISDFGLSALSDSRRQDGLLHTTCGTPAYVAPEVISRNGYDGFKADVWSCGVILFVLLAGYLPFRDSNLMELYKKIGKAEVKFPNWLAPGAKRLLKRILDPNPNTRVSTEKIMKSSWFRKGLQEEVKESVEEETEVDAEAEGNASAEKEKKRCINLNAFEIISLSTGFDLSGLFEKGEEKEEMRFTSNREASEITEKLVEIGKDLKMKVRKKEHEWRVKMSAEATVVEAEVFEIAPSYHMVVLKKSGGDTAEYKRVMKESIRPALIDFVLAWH

[5] = molecular target: T5, CIPK18, two-hybrid fusion (Arabidopsis) (UniProt Q9LP51)
T5 sequence: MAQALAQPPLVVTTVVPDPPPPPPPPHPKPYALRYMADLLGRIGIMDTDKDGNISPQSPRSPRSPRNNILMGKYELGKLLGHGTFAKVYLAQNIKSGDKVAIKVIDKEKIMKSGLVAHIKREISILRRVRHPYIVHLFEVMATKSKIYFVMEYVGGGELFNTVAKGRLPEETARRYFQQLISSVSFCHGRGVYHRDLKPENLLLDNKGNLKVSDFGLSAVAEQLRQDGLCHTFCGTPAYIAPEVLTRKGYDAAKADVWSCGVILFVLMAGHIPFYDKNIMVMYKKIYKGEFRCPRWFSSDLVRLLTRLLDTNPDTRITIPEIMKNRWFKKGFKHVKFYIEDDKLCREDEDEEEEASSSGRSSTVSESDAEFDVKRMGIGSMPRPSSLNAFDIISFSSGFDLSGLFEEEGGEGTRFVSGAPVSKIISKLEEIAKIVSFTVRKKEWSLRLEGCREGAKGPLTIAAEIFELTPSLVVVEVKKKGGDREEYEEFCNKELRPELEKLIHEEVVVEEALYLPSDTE

Measured: binding

B1: AP2C1 (protein phosphatase 2C), two-hybrid fusion (enzyme, UniProt O80871 1-396)
chain: MSCSVAVCNSPVFSPSSSLFCNKSSILSSPQESLSLTLSHRKPQTSSPSSPSTTVSSPKSPFRLRFQKPPSGFAPGPLSFGSESVSASSPPGGVLKRKRPTRLDIPIGVAGFVAPISSSAAVAATPREECREVEREGDGYSVYCKRGRREAMEDRFSAITNLHGDRKQAIFGVYDGHGGVKAAEFAAKNLDKNIVEEVVGKRDESEIAEAVKHGYLATDASFLKEEDVKGGSCCVTALVNEGNLVVSNAGDCRAVMSVGGVAKALSSDHRPSRDDERKRIETTGGYVDTFHGVWRIQGSLAVSRGIGDAQLKKWVIAEPETKISRIEHDHEFLILASDGLWDKVSNQEAVDIARPLCLGTEKPLLLAACKKLVDLSASRGSSDDISVMLIPLRQFI
no binding: [1] | [2] | [3] | [4] | [5]
